# Source: the supplement of paper PMC4604168 (melanoma cell lines)
# This is one part of the list. Most values come without repeats; read them as rough.
# Tests used:
# Test in all cases: cell count relative to DMSO control; melanoma cells; higher = more viable cells
# Conditions in all cases: library dose: standard library concentration; 72 h
# G361 = test system: G361
# IPC-298 = test system: IPC-298
# IST-MEL1 = test system: IST-MEL1
# LB2518-MEL = test system: LB2518-MEL
# LOXIMVI = test system: LOXIMVI
# MEL-HO = test system: MEL-HO
# MZ2-MEL = test system: MZ2-MEL
# MeWo = test system: MeWo
# RPMI7951 = test system: RPMI7951
# RVH-421 = test system: RVH-421
# SkMel28 = test system: SkMel28
# SkMel2 = test system: SkMel2
# SkMel30 = test system: SkMel30
# SkMel5 = test system: SkMel5
# UACC257 = test system: UACC257
# UACC62 = test system: UACC62
# WM115 = test system: WM115
# WM1716 = test system: WM1716
# WM1745 = test system: WM1745
# WM3526 = test system: WM3526
# 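Also: cells treated in 1,536-well plates, then fixed and DAPI-stained, with nuclei counted from automated high-throughput microscope images.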
SMILES,cell count (G361) [%],cell count (IPC-298) [%],cell count (IST-MEL1) [%],cell count (LB2518-MEL) [%],cell count (LOXIMVI) [%],cell count (MEL-HO) [%],cell count (MZ2-MEL) [%],cell count (MeWo) [%],cell count (RPMI7951) [%],cell count (RVH-421) [%],cell count (SkMel28) [%],cell count (SkMel2) [%],cell count (SkMel30) [%],cell count (SkMel5) [%],cell count (UACC257) [%],cell count (UACC62) [%],cell count (WM115) [%],cell count (WM1716) [%],cell count (WM1745) [%],cell count (WM3526) [%]
"Cc1ccc(NC(=O)c2cccc(N(C)C)c2)cc1NC(=O)c1ccc(O)cc1 + CO[C@@H]1[C@H](N(C)C(=O)c2ccccc2)C[C@H]2O[C@]1(C)n1c3ccccc3c3c4c(c5c6ccccc6n2c5c31)C(=O)NC4 [Midostaurin] (first compound 10 µM, partner dose 0.4 µM)",49,63.6,76.8,49.8,61,77.1,48.1,68.4,31.6,81.5,47.3,47.5,62.9,52.5,61.3,70.2,46.5,35.6,24.6,62
"CCCCCCCCc1ccc(CCC(N)(CO)CO)cc1 [fingolimod] + CN(C)S(=O)(=O)c1ccc2c(c1)/C(=C/c1cc3c([nH]1)CCCC3)C(=O)N2 [SU6656] (first compound 10 µM, partner dose 2 µM)",0.802,16,9.47,0.171,11.8,6.26,2.42,11.5,2.31,14.7,0.225,0.0905,7.06,38.7,51.7,19.2,5.02,23.5,7.85,21.5
"CC(C)(C)c1cnc(CSc2cnc(NC(=O)C3CCNCC3)s2)o1 + C[C@@H]1CCN(C(=O)CC#N)C[C@@H]1N(C)c1ncnc2[nH]ccc12 [CP690550] (first compound 0.05 µM, partner dose 5 µM)",81.4,106,80.1,70.2,58.2,92,90.7,83,23.2,71.3,73.1,75.7,91.8,78.5,100,72,80.8,60.4,67.6,88.4
"CCc1ccc(CCOc2ccc(CC3SC(=O)NC3=O)cc2)nc1 (stereo not given) [pioglitazone] + COc1cc(N2CCC(N3CCN(C)CC3)CC2)ccc1Nc1ncc(Cl)c(Nc2ccccc2S(=O)(=O)C(C)C)n1 [NVP-TAE684] (first compound 10 µM, partner dose 0.4 µM)",97.2,99.7,92.7,103,111,98.5,100,72.4,96.6,80.8,55.2,75.7,99.8,72.8,80.2,78.9,81.9,80.5,73.2,81.8
"CCc1ccc(CCOc2ccc(CC3SC(=O)NC3=O)cc2)nc1 (stereo not given) [pioglitazone] + O=S(=O)(c1ccccc1)N(CC(F)(F)F)c1ccc(C(O)(C(F)(F)F)C(F)(F)F)cc1 [T0901317] (first compound 10 µM, partner dose 7 µM)",66.6,83.7,95.5,86.8,103,77.4,92.5,78.9,83.2,106,69.4,86.5,84.8,70.8,78.7,81.5,83.1,2.57,64.2,72.1
"CCCCCCCCc1ccc(CCC(N)(CO)CO)cc1 [fingolimod] + C=C(c1ccc(C(=O)O)cc1)c1cc2c(cc1C)C(C)(C)CCC2(C)C [Bexarotene] (first compound 10 µM, partner dose 10 µM)",0.825,20.3,12.4,0.21,13.7,2.13,2.63,10,0.346,6.75,1.52,0.114,10.5,51.9,72.1,12.3,16.2,9.1,3.65,24.6
"COc1cc2c(Oc3ccc4[nH]c(C)cc4c3F)ncnc2cc1OCCCN1CCCC1 [cediranib] + Oc1cc(-c2nc(-c3ccccc3)[nH]c2-c2ccncc2)ccc1Cl [L779450] (first compound 2 µM, partner dose 1 µM)",47.9,77.6,85.2,94.2,49,79.5,97.5,75.1,40.3,66.2,58,24,71.9,61.6,88.7,51.4,40.1,57.8,46,45.5
"Cc1ccc(NC(=O)c2cccc(N(C)C)c2)cc1NC(=O)c1ccc(O)cc1 + COc1ccc(-c2ccc3c(N4CCOCC4)nc(N4C[C@@H](C)O[C@@H](C)C4)nc3n2)cc1CO [KU0063794] (first compound 10 µM, partner dose 0.1 µM)",79.4,87.9,81.3,72,95.6,83.8,86.9,91.2,62.3,92.2,59.8,88.7,92.2,71.1,93.1,130,84.6,98.2,58.9,70.7
"NC(=O)c1ccc(N(C(N)=O)c2c(F)cccc2F)nc1-c1ccc(F)cc1F + Nc1ccn([C@@H]2O[C@H](CO)[C@@H](O)C2(F)F)c(=O)n1 [gemcitabine] (first compound 2 µM, partner dose 0.002 µM)",36.3,35.1,32.6,49,71.5,47.1,64,41.9,58.7,91.1,72.1,78.1,92.4,81,104,75.7,72.9,66.7,37.6,104
"CCCCCCCCc1ccc(CCC(N)(CO)CO)cc1 [fingolimod] + C=CCNC1=C2C[C@@H](C)C[C@H](OC)[C@H](O)[C@@H](C)/C=C(\C)[C@H](OC(N)=O)[C@@H](OC)/C=C\C=C(/C)C(=O)NC(=CC1=O)C2=O [Tanespimycin] (first compound 10 µM, partner dose 0.01 µM)",0.513,44.3,10.7,0.523,21.4,4.29,1.28,22.5,1.66,37.3,0.478,0.537,8.45,46.8,70.8,23.9,17.5,53.6,7.28,44.5
"COc1cc2c(Oc3ccc4[nH]c(C)cc4c3F)ncnc2cc1OCCCN1CCCC1 [cediranib] + Cc1cc([N+](=O)[O-])ccc1NS(=O)(=O)c1cc(Cl)ccc1Cl [FH535] (first compound 2 µM, partner dose 5 µM)",64.7,58.8,70.6,82.1,72,58.4,68.3,82,66.3,61.8,61.1,91,72.9,75.2,66.2,78.7,75.6,77.4,82.8,76.7
"COc1cc2c(Oc3ccc4[nH]c(C)cc4c3F)ncnc2cc1OCCCN1CCCC1 [cediranib] + COc1cc2ncnc(Nc3ccc(Oc4ccccc4)cc3)c2cc1OC [SrcI1] (first compound 2 µM, partner dose 10 µM)",31.8,73,85.3,93.9,46.3,81.9,62.5,63.7,10.5,84.8,66.5,69.9,70.9,63.4,94,62.3,61.4,67.6,45.8,56
"NC(=O)c1ccc(N(C(N)=O)c2c(F)cccc2F)nc1-c1ccc(F)cc1F + COc1cc2c(Oc3ccc4[nH]c(C)cc4c3F)ncnc2cc1OCCCN1CCCC1 [cediranib] (first compound 2 µM, partner dose 2 µM)",96.7,107,79.1,107,83.5,91.5,107,87.1,78.1,92.7,117,100,115,76.7,95.1,73.5,116,119,70.3,92.7
"CCCCCCCCc1ccc(CCC(N)(CO)CO)cc1 [fingolimod] + COc1cc(Nc2ncc(F)c(Nc3ccc4c(n3)NC(=O)C(C)(C)O4)n2)cc(OC)c1OC [Tamatinib] (first compound 10 µM, partner dose 2 µM)",1.56,67.1,5.5,1.12,0.966,1.14,5.73,8.08,1.24,6.74,0.957,3.02,15.5,29.4,48.6,14.6,9.06,16.4,4.36,13.3
"CC(C)(C)c1cnc(CSc2cnc(NC(=O)C3CCNCC3)s2)o1 + Oc1nc(-c2ccc(C(F)(F)F)cc2)nc2c1CSCC2 [XAV939] (first compound 0.05 µM, partner dose 10 µM)",84.4,85.5,94.3,65.1,90,79.9,79.1,95.4,39.5,79.2,51.3,83.3,90.5,62.9,81.7,92.4,77.7,51.8,89.9,87.8
"NC(=O)c1ccc(N(C(N)=O)c2c(F)cccc2F)nc1-c1ccc(F)cc1F + OCc1c[nH]c2ccccc12 [Indole-3-carbinol] (first compound 2 µM, partner dose 4 µM)",90.1,108,99.3,92.2,115,95.1,109,106,91.4,117,72.6,95.5,78.3,77.1,111,67.5,103,111,87.1,92.8
